Some of the results follow. At the low end of the ranking the order means little.

The target of the experiment is SIX1 homeodomain (reference allele) (UniProt Q15475). Kind of experiment: universal protein binding microarray. The note with it: Universal all-10-mer PBM (8x60K, AMADID 030236), 300 nM GST-tagged protein, Alexa Fluor 488 anti-GST; buffer, salt, pH and temperature not stated; high values mean tight binding; most listed sequences are background and not binding sites; double strand, one strand shown.
Regarding CCATTAGC, the binding signal was -0.12 E-score.

Turning to CGGTTGCC, the binding signal was -0.091 E-score.

For the sequence ATTGAATA, the binding signal amounted to 0.196 E-score.

As to CGGTCCTA, the binding signal is -0.207 E-score.

As for CCAGGAAA, the binding signal is -0.0311 E-score.

As for ATTGAGGC, the binding signal is -0.125 E-score.

Consider TCGACAAA, for which the binding signal was -0.161 E-score.

Turning to AGTTGTAC, the binding signal is -0.158 E-score.

As to AGACCCAC, the binding signal is -0.149 E-score.

For the sequence CCGGAATA, the binding signal amounted to 0.162 E-score.

For the sequence GTAGTATA, the binding signal came to 0.267 E-score.

Regarding TAGTAGCA, the binding signal came out at 0.127 E-score.

With ATGGATAC, the binding signal is 0.447 E-score.

Regarding CTACGGTA, the binding signal is -0.0103 E-score.

With AGATGCGC, the binding signal was -0.155 E-score.

As for AACAAAGG, the binding signal is -0.247 E-score.

Take GAAGGGTA: the binding signal turned out to be 0.213 E-score.

Take AATATTGG: the binding signal was 0.138 E-score.

Consider GCTGTAAA, for which the binding signal is -0.33 E-score.

Turning to GAGCACGC, the binding signal is -0.143 E-score.

On to AGCGGGAA, for which the binding signal was -0.243 E-score.

Regarding ACGTCGGG, the binding signal came to 0.114 E-score.

In the case of CCCAGCCG, the binding signal is -0.0218 E-score.

For the sequence CGTGGTTA, the binding signal is -0.122 E-score.

Consider CACTCACG, for which the binding signal is -0.0229 E-score.

On to ATACGGAC, for which the binding signal turned out to be 0.193 E-score.

As to TTAGCAAA, the binding signal is -0.275 E-score.

In the case of AGACATAA, the binding signal is -0.0636 E-score.

Turning to GCGTAGTA, the binding signal is -0.0752 E-score.

Consider GGACTGCC, for which the binding signal is -0.291 E-score.

With ATTTCCGG, the binding signal is -0.0202 E-score.

Turning to CATGTCGC, the binding signal was determined as 0.00449 E-score.

As for CCGAAAAG, the binding signal is -0.0906 E-score.

For the sequence ACAGACTC, the binding signal is -0.265 E-score.

Regarding TGGAGCCA, the binding signal was -0.219 E-score.

As for GCTTAGTA, the binding signal is -0.0597 E-score.

GGCTCAGA: the binding signal was 0.0979 E-score.

For the sequence CGACATCG, the binding signal is -0.0482 E-score.

For the sequence CGCTAGAA, the binding signal is -0.0571 E-score.

GGGTATCA: the binding signal was 0.497 E-score.

Regarding ACGTGACG, the binding signal was -0.229 E-score.

Turning to CCGTAAGG, the binding signal came to 0.0211 E-score.

In the case of CAGTCGTA, the binding signal is -0.101 E-score.

On to ATTCCCAG, for which the binding signal is -0.0378 E-score.

For AAATAACT, the binding signal is -0.175 E-score.

Consider AGGTCATA, for which the binding signal stood at 0.0508 E-score.

In the case of ACGTCCGC, the binding signal was -0.19 E-score.

Turning to CAGTAATC, the binding signal is 0.0968 E-score.

For GACTATTA, the binding signal was -0.0403 E-score.

As for AGGTAGTC, the binding signal amounted to 0.00526 E-score.

TCCGAGCA: the binding signal is -0.0193 E-score.

In the case of AACGGGAC, the binding signal was -0.281 E-score.

As for GGGAAGTA, the binding signal was 0.0408 E-score.

Take AGTTAGAA: the binding signal was -0.12 E-score.

As to CACCGTGC, the binding signal turned out to be 0.129 E-score.

In the case of CTTTTAGA, the binding signal is -0.103 E-score.

In the case of CAATCGAG, the binding signal is -0.0672 E-score.

Turning to CAGGCCAA, the binding signal is -0.188 E-score.

Take AATTGAGC: the binding signal amounted to 0.013 E-score.

As to AGACCGGC, the binding signal came out at 0.0106 E-score.

ACATGGGG: the binding signal is -0.0565 E-score.

In the case of GGAACCGA, the binding signal is -0.00911 E-score.

Regarding CTCTATTC, the binding signal stood at 0.0489 E-score.

On to AATTCTCC, for which the binding signal is -0.147 E-score.

As for ATCCATCG, the binding signal stood at 0.246 E-score.

Regarding ATGAACAA, the binding signal was -0.193 E-score.

Turning to AGTCCGTG, the binding signal was -0.0387 E-score.

Take ACACGATG: the binding signal was determined as 0.156 E-score.

As to CATCCCCC, the binding signal was determined as 0.199 E-score.

For CATCCGCG, the binding signal is -0.0348 E-score.

Take CCTAACTC: the binding signal is -0.247 E-score.

Regarding GACCCCGA, the binding signal was found to be 0.162 E-score.

As for CAAAGTTC, the binding signal is -0.195 E-score.

For the sequence AGTATCAT, the binding signal was determined as 0.473 E-score.

For the sequence GGACTCAC, the binding signal was -0.11 E-score.

Turning to AACAGGCG, the binding signal is -0.151 E-score.

Consider ATTCTGCA, for which the binding signal was -0.0985 E-score.

With GAGCTTCC, the binding signal was -0.00866 E-score.

Consider ACATGGTA, for which the binding signal stood at 0.159 E-score.

With CACGGGCG, the binding signal amounted to 0.00782 E-score.

Regarding CAAATGGA, the binding signal is -0.0716 E-score.

As for GTAGGGAA, the binding signal was -0.131 E-score.

In the case of CAGTATCG, the binding signal came to 0.435 E-score.

With CGTCTGGA, the binding signal is -0.259 E-score.

Regarding ACTCCTGG, the binding signal was found to be 0.0384 E-score.

For the sequence GTTAAAAC, the binding signal is -0.232 E-score.

Consider CGGTGTAC, for which the binding signal came out at 0.309 E-score.

Take ATTCCAGC: the binding signal was -0.0405 E-score.

For GATCGATA, the binding signal was determined as 0.408 E-score.

CGATTTTC: the binding signal was -0.126 E-score.

TGTAGGAA: the binding signal is -0.111 E-score.

As for ATAATGCG, the binding signal was found to be 0.0852 E-score.

Take GGCAGGGA: the binding signal is -0.0171 E-score.

AATTATGT: the binding signal was -0.137 E-score.

For the sequence AAGCAAGG, the binding signal was -0.155 E-score.

Take CTAATCTA: the binding signal is -0.0476 E-score.

Turning to AGTATAAT, the binding signal is 0.265 E-score.

In the case of AACGAAGA, the binding signal was -0.0393 E-score.

Consider CGGAGGAA, for which the binding signal is -0.257 E-score.

For TCTGCCCA, the binding signal was -0.0751 E-score.

As for ACCTGGAC, the binding signal was -0.134 E-score.

Regarding CGGTCCTC, the binding signal is -0.184 E-score.

On to AGCCGTAT, for which the binding signal is 0.292 E-score.

For ATAATCGG, the binding signal was found to be 0.196 E-score.

With CCGACCCA, the binding signal is 0.155 E-score.

As to CACTAAGC, the binding signal is -0.0184 E-score.

ATCGTGCC: the binding signal worked out at 0.192 E-score.

With AGTCACGG, the binding signal was -0.0996 E-score.

Turning to CATAAATA, the binding signal is -0.0792 E-score.

The values above are taken from article PMC10668032.
